Results as given in PMC4336329 (PLoS ONE, 2015).
Out of some 310,000 compounds screened, about 14,000 (4.5%) showed an effect of 50% or more. The effect is printed as a negative number. This is one part of the list.

Biological target: human ether-à-go-go-related gene (hERG) potassium channel (human, UniProt Q12809)
Assay: primary screen, population patch clamp on CHO cells stably expressing hERG
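Note: peak tail current of the secondary pulse compared with the same well before compound.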

Chain of human ether-à-go-go-related gene (hERG) potassium channel (Q12809 whole entry, looked up): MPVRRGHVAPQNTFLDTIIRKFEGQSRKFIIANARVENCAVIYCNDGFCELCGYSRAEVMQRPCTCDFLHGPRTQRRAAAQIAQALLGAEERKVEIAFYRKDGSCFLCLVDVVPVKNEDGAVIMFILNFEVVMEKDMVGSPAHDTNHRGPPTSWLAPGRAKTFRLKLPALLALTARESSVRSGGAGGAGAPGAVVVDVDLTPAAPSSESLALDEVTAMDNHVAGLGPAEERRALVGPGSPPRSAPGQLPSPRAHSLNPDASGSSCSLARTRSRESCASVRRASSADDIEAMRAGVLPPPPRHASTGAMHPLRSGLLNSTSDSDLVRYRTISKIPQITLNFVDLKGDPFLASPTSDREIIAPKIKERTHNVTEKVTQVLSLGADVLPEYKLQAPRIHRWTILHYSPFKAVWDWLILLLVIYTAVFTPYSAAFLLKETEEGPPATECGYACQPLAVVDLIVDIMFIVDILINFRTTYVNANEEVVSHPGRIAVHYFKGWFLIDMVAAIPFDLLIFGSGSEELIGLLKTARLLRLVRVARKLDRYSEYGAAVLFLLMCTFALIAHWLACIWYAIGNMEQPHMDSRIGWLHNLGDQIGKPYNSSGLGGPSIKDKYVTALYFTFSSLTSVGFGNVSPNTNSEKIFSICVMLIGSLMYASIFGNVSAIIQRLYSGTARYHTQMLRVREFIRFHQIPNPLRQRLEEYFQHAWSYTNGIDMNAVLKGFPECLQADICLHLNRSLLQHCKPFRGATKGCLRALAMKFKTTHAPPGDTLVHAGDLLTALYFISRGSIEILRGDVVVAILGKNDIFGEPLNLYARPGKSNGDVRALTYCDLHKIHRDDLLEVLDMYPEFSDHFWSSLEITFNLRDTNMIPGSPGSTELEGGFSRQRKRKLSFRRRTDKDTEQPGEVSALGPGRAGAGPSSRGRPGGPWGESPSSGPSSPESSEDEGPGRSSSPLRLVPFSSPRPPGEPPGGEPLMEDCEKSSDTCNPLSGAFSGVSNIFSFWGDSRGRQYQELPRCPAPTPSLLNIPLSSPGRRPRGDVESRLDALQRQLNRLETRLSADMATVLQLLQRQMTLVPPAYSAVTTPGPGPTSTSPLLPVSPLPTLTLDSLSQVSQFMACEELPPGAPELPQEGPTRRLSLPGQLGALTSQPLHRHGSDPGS

Row | Compound | hERG current change (%, negative = inhibition) at 10uM [%]
1 | CCOC(=O)c1nnc(-c2ccccc2)nc1Sc1ccccc1Cl | 8.66
2 | CC(=O)N1CCc2cc(NS(=O)(=O)c3cccs3)ccc21 | -2.13
3 | COc1ccc(-c2cc3nc(C)cc(N)n3n2)cc1 | 3.53
4 | CCc1ccc(NC(=O)COc2cccc(-n3cnnn3)c2)cc1 | -68
5 | O=C(Cc1c(F)cccc1Cl)NNC(=S)Nc1ccc(S(=O)(=O)Nc2ncccn2)cc1 | 19.4
6 | S=C(NCc1ccccc1Cl)NC1CCCC1 | 7.24
7 | Nc1ncnc2nc(SCc3ccccc3)[nH]c12 | -15.3
8 | CO/N=C(/COc1ccc(F)cc1)c1ccc(OC)cc1 | 20
9 | COc1ccc(CCNC(=O)c2ccc(NS(=O)(=O)c3c(C)noc3C)cc2)cc1OC | -1.45
10 | Cc1ccc(-n2c(=O)[nH]cc(C(=O)Nc3ccc4c(c3)OCCO4)c2=O)cc1 | 18.3
11 | CC(C)(C)n1nnnc1C(c1cccnc1)N1CCOCC1 (stereo not drawn) | -6.29
12 | CCN1CCN(CC(O)COc2cccc(OC)c2)CC1.Cl (stereo not drawn) | 3.43
13 | CCN(CC)Cc1ccccc1CNC(=O)c1cccc(S(=O)(=O)Nc2ccc3c(c2)OCO3)c1 | -71.3
14 | COC(=O)C1CCN(C(=O)c2ccc3nc(-c4cccc(OC)c4)oc3c2)CC1 | -9.82
15 | O=C(CN1C(=O)C2CC=CCC2C1=O)Nc1ccc(S(=O)(=O)Nc2nccs2)cc1 (stereo not drawn) | 5.93
16 | CCc1cc(C(=O)NNC(=S)Nc2cccc(C)c2)cs1 | 3.09
17 | COc1cccc(C(c2nnnn2Cc2ccccc2)N2CCN(C3CCCC3)CC2)c1OC.Cl (stereo not drawn) | -32
18 | CCCN1CN=C(Nc2nc3ccccc3o2)NC1 | 4.33
19 | N=c1oc2cc(O)ccc2cc1C(=O)Nc1ccc(F)cc1 | 22
20 | Cc1ccc(C(=O)N(C)Cc2ccccc2)cc1S(=O)(=O)N1CCOCC1 | -12.8
21 | Cc1ccc2cc(CN(CCCN(C)C)C(=S)NCc3ccccc3)c(=O)[nH]c2c1C | -50.3
22 | S=C(c1c[nH]c2ccccc12)N1CCOCC1 | 23.5

Row | Compound | hERG current change (%, negative = inhibition) at 10uM [%]
23 | CC(C)C(NS(=O)(=O)c1cccs1)C(=O)NCc1ccc2c(c1)OCO2 (stereo not drawn) | -12
24 | CCOc1ccccc1NC(=O)CSC1=NN2CCCC(=O)N=C2S1 | -2.8
25 | CCCOP(=O)(c1ccc(N(C)C)cc1)C(Nc1ccccc1)c1ccc(C)cc1 (stereo not drawn) | -30.8
26 | O=C(/C=C/c1ccco1)NC(=S)Nc1ccc(O)c(-c2nc3ccccc3s2)c1 | 13.2
27 | CCN(Cc1ccccc1)C(=O)COC(=O)c1cnc(C)cn1 | 27.8
28 | O=C(Nc1ccccc1N1CCCCC1)c1ccc2nccnc2c1 | -11.8
29 | Cc1ccc(CNC(=O)CN(c2ccc(C(C)C)cc2)S(=O)(=O)c2c(C)noc2C)cc1 | 7.25
30 | C#CCN1N=C(c2ccc(C)cc2)CSC1=O | 13.9
31 | COc1cc(/C=C2\C(C)=C(C#N)c3nc(N)c(C#N)c(C)c32)ccc1OCC(=O)O | 11.1
32 | FC(F)Oc1ccc(NC(=S)N2CCN(Cc3ccccc3)CC2)cc1 | -56
33 | COc1cccc(CN2C(=O)N(C(C)C)C(N(O)C(=O)NC(C)C)C2(C)C)c1OC (stereo not drawn) | 16.2
34 | Cc1ccc(N2CC(=O)Nc3c(sc4nc(C)cc(C)c34)C2=O)cc1 | 6.8
35 | C=CCNC(=O)C1CC2Cn3c(nc4cc(Cl)c(Cl)cc43)C2N1C (stereo not drawn) | -35.4
36 | Cc1nc(C(=O)N(C)C)nn1-c1ccc(Cl)cc1Cl | 10.3
37 | O=C([O-])c1cc([N+](=O)[O-])ccc1Nc1ccccc1.[Na+] | -1.84
38 | CCC(=O)c1ccc(OCC(=O)OCC(=O)N2c3ccccc3CC2C)cc1 (stereo not drawn) | -11.8
39 | Cc1cc(CNC(=O)C2CCC(=O)N(Cc3ccccc3F)C2)on1 (stereo not drawn) | 9.42
40 | COc1ccc(S(=O)(=O)NCC(c2cccnc2)N2CCN(Cc3ccccc3)CC2)cc1 (stereo not drawn) | -58.5
41 | COc1ccc([N+](=O)[O-])cc1/C=N/Nc1nn[nH]n1 | 19.1
42 | CCOC(=O)C1CCCN(c2ccc(NC(=O)c3snc4c(=O)[nH]c(C)nc34)cc2)C1 (stereo not drawn) | 0.303
43 | Cc1cc(NC(=O)COc2c(C)cccc2C)no1 | 22.3
44 | O=[N+]([O-])c1cccc(-c2ccc(/C=N/NC(=S)Nc3ccccc3)o2)c1 | 19.5

Row | Compound | hERG current change (%, negative = inhibition) at 10uM [%]
45 | CCC(=O)Nc1c(C(=O)N2CCCCCC2)cnn1-c1ccc(C)c(C)c1 | -12.7
46 | Cn1c(SCC(=O)N(Cc2ccccc2)C(C)(C)C)nc2ccccc21 | 0.986
47 | COc1ccc(OC)c(C2=NOC(C(=O)N3CCN(c4ccccc4)CC3)C2)c1 (stereo not drawn) | -19.1
48 | O=C(CCCCCNC(=O)c1ccccc1)N/N=C/c1ccc(F)cc1 | -18.8
49 | Cc1ccccc1NC(=O)N(CCc1nc2ccccc2[nH]1)Cc1ccccc1 | -12.9
50 | COc1ccc(/C=C/C(=O)Nc2ccc3nc4n(c(=O)c3c2)CCCC4)cc1 | 22.7
51 | CC(NC(=O)c1ccncc1)C(c1cccs1)N1CCOCC1 (stereo not drawn) | -3.52
52 | CCc1nnc(NS(=O)(=O)c2ccc(NC(=S)NC(=O)/C=C/c3ccc(F)cc3)cc2)s1 | 6.15
53 | C/C(=N\NC(=O)c1ccc2c(c1)OCO2)c1ccc2c(c1)OCO2 | 13.2
54 | Cc1cccc2cc(CN(CCN(C)C)C(=S)Nc3ccccc3)c(=O)[nH]c12 | -24
55 | O=C(O)COCc1nc2ccccc2[nH]1 | -6.31
56 | C(=C\n1nnc2ccccc21)/c1ccc[nH]1 | 3.8
57 | CCOC(=O)C(=O)NC1CCSC1=O (stereo not drawn) | -0.865
58 | COCC(C)OC(=O)c1c(N)n(CCCN2CCOCC2)c2nc3ccccc3nc12 (stereo not drawn) | -9.69
59 | C=CCc1cccc2cc(C(=O)NCCOC)c(=O)oc12 | -21.7
60 | O=C(c1ccco1)N1CCN(S(=O)(=O)c2ccc(S(=O)(=O)NC3CCCCC3)cc2)CC1 | -43.8
61 | CC(=NCCCN(C)C)C1=C(O)c2ccccc2C1=O | -14.5
62 | O=C(CN1C(=O)NC(c2ccccc2)(c2ccccc2)C1=O)Nc1cccnc1Cl | -31.4
63 | Clc1ccc(Sc2cc(Cl)c(-c3ccccc3)nn2)cc1 | 0.12
64 | Cc1ccccc1OCC(O)CN1CCN(c2ccccn2)CC1.Cl (stereo not drawn) | -48.8
65 | Cc1cc2ccccn2c1C(=O)c1ccc(F)cc1 | 3.86
66 | CCCc1[nH]nc2c1C1(CCOC1C)C(C#N)=C(N)O2 (stereo not drawn) | 4.44

Row | Compound | hERG current change (%, negative = inhibition) at 10uM [%]
67 | CCOc1ccccc1NC(=O)C(NCCc1ccc(OC)cc1)c1ccccc1 (stereo not drawn) | -4.48
68 | Cc1cc(NC(=O)Cn2nc3c(cc2=O)CCCC3)ccc1Br | -4.02
69 | CCOCCCNC(=O)C1CCCN(S(=O)(=O)c2cccc3nsnc23)C1 (stereo not drawn) | 17.9
70 | CCN(CC)S(=O)(=O)c1ccc(NC(=O)CSc2ncnc3ccccc23)cc1 | -8.71
71 | Cn1c(=O)cc(OCCCC(=O)N2CCN(Cc3ccc4c(c3)OCO4)CC2)c2ccccc21 | -26.2
72 | O=C(/C=C/c1ccc(Cl)cc1Cl)NC(=S)Nc1ccc(CN2CCOCC2)cc1 | -3.32
73 | COc1cccc(-n2cc(CNC(=O)C3CCC(=O)N(C4CC4)C3)cn2)c1 (stereo not drawn) | -11
74 | O=[N+]([O-])c1ccccc1/C=N/n1c(COc2ccccc2)n[nH]c1=S | 2.43
75 | CC(C)N=C1NN=C(c2ccc(F)cc2)CS1 | -10.1
76 | FC(F)(F)c1ccc(Nc2nnnc3ccccc23)cc1 | 4.83
77 | O=C(NCCCN1CCOCC1)/C(=C/c1cccnc1)NC(=O)c1ccccc1 | -25
78 | COCCNc1nc(N)c([N+](=O)[O-])c(N2CCCCCC2)n1 | -6.79
79 | CC(Sc1nnc(COc2ccccc2)n1-c1ccccc1)C(=O)O (stereo not drawn) | 17.8
80 | CC1=NCCN1CCNC(=O)Nc1ccc(C(C)(C)C)cc1 | 7.42
81 | COC(=O)c1ccc(/C=N/NC(=O)c2ccc3nc[nH]c3c2)cc1 | 19.3
82 | CC(C)C(c1nnnn1Cc1ccco1)N1CCN(c2nc3ccccc3s2)CC1 (stereo not drawn) | -6.54
83 | C#CCOCCOCCOCCNc1nc(N2CCN(C(=O)C(Cc3cc4ccccc4[nH]3)n3cc(C(N)Cc4ccc(O)cc4)nn3)CC2)nc(N2CCN(C(=O)C(CCC(=O)O)n3cc(C(N)C(C)CC)nn3)CC2)n1.Cl (stereo not drawn) | 21.5
84 | Cc1c(/C=N/NC(=O)C(NC(=O)c2ccc3c(c2)OCO3)C(C)C)c2ccccc2n1C (stereo not drawn) | -2.48
85 | CCCCCCOC(=O)c1ccc(OC(=O)c2cccnc2)cc1 | 12.6
86 | Cc1cc(Br)cc(Cl)c1OCC(=O)NC(=O)NCc1ccccc1 | 6.27
87 | O=C(NCC(c1ccco1)N1CCc2ccccc2C1)c1ccc(Br)cc1 (stereo not drawn) | -12.6
